From PMC5440653 come the findings set out here.

Sequences of proteins named here, by UniProt entry; tags and fusion partners are left off. A change or cut given only in a name is not applied to a line headed by its entry. Residues count along the entry.
UniProt P08887: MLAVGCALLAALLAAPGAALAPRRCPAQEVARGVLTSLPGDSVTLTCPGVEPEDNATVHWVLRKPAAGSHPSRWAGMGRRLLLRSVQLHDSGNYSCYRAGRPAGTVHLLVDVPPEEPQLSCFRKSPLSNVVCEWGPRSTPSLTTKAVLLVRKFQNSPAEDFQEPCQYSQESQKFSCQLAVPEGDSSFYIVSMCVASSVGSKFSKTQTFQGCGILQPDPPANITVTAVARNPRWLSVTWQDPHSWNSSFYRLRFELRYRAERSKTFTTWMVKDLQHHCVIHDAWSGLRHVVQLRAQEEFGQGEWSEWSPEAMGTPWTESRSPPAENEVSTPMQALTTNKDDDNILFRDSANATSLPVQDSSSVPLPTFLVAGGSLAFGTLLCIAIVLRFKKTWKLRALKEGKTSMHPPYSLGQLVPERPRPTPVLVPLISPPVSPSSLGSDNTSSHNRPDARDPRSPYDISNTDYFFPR
UniProt Q92673: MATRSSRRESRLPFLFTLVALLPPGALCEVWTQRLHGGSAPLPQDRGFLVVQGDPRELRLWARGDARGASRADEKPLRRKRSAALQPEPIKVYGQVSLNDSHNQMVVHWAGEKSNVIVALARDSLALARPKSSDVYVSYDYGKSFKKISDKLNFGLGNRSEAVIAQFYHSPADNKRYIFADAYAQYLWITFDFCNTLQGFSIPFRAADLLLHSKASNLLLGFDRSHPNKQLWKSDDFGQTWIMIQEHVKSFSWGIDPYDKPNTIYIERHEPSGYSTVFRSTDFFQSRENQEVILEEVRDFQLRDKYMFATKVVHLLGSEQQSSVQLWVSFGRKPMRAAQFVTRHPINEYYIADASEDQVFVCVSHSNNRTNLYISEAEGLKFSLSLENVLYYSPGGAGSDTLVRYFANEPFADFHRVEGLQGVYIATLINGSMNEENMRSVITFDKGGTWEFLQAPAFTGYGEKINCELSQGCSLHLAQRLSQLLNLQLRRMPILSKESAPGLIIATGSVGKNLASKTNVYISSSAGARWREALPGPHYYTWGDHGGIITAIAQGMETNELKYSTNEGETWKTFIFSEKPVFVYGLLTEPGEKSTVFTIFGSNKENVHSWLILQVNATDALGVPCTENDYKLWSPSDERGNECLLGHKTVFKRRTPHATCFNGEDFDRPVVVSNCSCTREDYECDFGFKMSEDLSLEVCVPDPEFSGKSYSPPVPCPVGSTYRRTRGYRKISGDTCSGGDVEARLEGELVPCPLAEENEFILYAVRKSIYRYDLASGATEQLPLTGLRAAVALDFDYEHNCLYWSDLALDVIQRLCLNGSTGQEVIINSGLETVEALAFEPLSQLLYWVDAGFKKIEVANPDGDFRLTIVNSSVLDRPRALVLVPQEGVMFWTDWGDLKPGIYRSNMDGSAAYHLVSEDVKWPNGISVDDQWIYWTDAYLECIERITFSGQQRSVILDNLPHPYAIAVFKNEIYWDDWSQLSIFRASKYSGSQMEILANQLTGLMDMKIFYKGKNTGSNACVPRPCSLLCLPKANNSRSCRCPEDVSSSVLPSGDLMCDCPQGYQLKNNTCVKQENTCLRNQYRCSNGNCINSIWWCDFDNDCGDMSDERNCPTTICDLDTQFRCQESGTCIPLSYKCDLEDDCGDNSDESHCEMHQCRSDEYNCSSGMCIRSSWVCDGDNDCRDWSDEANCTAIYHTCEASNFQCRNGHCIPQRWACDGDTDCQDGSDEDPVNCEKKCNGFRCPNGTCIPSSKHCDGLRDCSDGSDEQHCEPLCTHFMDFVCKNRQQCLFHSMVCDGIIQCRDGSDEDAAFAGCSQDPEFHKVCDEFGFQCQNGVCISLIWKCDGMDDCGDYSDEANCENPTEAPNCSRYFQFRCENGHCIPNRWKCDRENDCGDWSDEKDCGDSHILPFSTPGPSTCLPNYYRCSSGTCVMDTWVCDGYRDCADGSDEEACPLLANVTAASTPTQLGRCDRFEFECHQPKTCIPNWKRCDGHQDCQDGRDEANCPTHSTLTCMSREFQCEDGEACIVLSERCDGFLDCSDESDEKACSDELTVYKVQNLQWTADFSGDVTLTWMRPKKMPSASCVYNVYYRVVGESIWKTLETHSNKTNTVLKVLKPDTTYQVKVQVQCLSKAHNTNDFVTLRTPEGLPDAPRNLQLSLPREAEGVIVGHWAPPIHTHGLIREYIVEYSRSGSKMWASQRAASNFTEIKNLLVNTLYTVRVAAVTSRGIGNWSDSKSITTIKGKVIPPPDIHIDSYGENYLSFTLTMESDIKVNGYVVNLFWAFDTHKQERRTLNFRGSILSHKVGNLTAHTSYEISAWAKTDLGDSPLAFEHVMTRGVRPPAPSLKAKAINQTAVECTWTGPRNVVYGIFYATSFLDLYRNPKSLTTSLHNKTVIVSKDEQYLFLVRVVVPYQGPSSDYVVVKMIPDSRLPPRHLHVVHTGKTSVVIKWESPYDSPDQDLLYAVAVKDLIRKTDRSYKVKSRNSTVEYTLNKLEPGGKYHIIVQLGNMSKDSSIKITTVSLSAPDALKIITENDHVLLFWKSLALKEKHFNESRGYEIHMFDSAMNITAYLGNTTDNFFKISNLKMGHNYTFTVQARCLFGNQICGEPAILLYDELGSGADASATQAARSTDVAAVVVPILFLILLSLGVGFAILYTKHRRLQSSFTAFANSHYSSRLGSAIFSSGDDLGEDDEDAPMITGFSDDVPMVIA
UniProt P40189: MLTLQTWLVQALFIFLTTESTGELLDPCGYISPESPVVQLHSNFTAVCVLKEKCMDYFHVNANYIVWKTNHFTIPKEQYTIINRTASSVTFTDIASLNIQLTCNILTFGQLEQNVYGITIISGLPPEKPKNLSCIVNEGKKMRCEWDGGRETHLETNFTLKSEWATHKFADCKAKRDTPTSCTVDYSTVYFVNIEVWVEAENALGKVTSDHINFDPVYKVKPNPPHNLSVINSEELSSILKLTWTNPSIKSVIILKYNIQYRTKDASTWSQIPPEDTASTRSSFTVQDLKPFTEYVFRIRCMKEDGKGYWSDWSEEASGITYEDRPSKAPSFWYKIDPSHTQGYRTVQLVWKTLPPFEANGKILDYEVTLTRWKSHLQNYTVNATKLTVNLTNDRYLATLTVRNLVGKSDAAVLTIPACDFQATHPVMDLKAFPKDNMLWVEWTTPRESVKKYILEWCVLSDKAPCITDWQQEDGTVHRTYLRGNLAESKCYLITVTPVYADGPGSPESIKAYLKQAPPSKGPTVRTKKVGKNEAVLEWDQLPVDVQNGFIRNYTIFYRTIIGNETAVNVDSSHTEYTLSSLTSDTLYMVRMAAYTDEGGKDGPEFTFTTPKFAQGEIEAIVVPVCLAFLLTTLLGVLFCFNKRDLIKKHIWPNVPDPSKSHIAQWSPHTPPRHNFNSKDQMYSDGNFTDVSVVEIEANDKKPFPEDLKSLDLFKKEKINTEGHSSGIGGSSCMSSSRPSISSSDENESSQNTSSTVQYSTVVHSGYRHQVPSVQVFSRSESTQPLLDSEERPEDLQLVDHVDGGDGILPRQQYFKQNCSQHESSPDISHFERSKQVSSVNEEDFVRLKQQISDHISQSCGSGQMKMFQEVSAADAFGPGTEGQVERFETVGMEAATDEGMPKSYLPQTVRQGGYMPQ
soluble human gp130-Fc: residues 23-619 of P40189
UniProt P05231, residues 30-212: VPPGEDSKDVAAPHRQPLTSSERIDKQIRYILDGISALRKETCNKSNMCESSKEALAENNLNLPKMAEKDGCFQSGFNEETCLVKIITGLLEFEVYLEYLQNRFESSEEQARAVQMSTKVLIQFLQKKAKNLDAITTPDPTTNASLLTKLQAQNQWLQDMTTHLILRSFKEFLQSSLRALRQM

For test [1], the target named is full-length transmembrane IL-6 receptor (human) (UniProt P08887). In words: co-IP; no cross-linker; transfected HEK293 cells biolabeled with [35S]cysteine and [35S]methionine (4 h, 37°C), lysed, immunoprecipitated with anti-IL-6R, reducing SDS-PAGE and autoradiography.
Test [2] has as its target soluble SorLA (SorLA ectodomain, luminal part) (human) (UniProt Q92673). The experiment in a line: SPR; competition: immobilized sSorLA or SorLA Vps10p-D saturated with propeptide (2 uM), then a mixture of propeptide (2 uM) and IL-6 or sIL-6R (100 nM) injected; both purified.
Test [3] shares this target. The experiment in a line: SPR; competition with neurotensin on immobilized sSorLA; data not shown; both purified. A general note: Surface plasmon resonance follows binding to a sensor surface in real time, without labels.
Test [4] deals with soluble IL-6 receptor (IL-6R ectodomain) (human) (UniProt P08887). In words: SPR; competition: immobilized sIL-6R subjected to sSorLA (1 uM), then a mixture of sSorLA (1 uM) and IL-6 (100 nM) injected; both purified.
Test [5] has as its target soluble human gp130-Fc (human) (UniProt P40189). The experiment in a line: SPR; data not shown; who was immobilized is not told; both purified.
Test [6] has as its target full-length SorLA (human) (UniProt Q92673). In words: cross-linking; transfected HEK293 cells treated 45 min with the membrane-impermeable, thiol-cleavable cross-linker DTSSP, lysed in 1% Triton X-100, immunoprecipitated with rabbit anti-SorLA, reducing SDS-PAGE, blot for IL-6R.
Test [7] shares this target. In words: cross-linking + co-IP; full-length receptors in cells; told in the discussion only, no data shown.

Results are given in words; binding and its absence hold for the method and conditions named. For part of these data: In cells and extracts the contact can be indirect. Some results given as binding are weak or reduced against the parent protein; the word gives no strength.

“full-length SorLA (from UniProt Q92673 82-2214) (receptor)”: the binding entry in test [1] is reported as “binds”. Take “soluble IL-6 receptor (IL-6R ectodomain) (from UniProt P08887 20-365)”: the binding result in test [2] and in test [3] was “binds” in each case. In the case of “Interleukin-6 (from UniProt P05231 30-212) (ligand)”, the binding entry in test [2] and in test [3] was “binds” each time. For the substance “soluble SorLA (SorLA ectodomain, luminal part) (from UniProt Q92673 82-2137) (receptor)”, the binding entry in test [4] and in test [5] was “binds” each time. With “full-length transmembrane IL-6 receptor (from UniProt P08887 20-468)”, the binding entry in test [6] is “binds”.

For “full-length gp130 (from UniProt P40189 23-918) (receptor)”, in test [7], the binding result was “no binding”.
